Test results as given in the supplement of paper PMC8291772.
± gives the standard error. The list shows a part of the results.

Target: terminal deoxynucleotidyl transferase (calf thymus) (UniProt P06526)
Test: TdT poly-dT extension signal (Cy3 hybridisation fluorescence, uncapped minus capped) (fluorescence a.u.); higher = more efficient initiation of TdT extension
Details: initiator chemistry: L-DNA (mirror-image), free 5'-OH (3'-tethered via HEG linker)
Experimental: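 All mono- to pentamer D-DNA or L-DNA initiators were made by forward (3'->5') photolithographic in situ synthesis on glass on a hexaethylene glycol linker, leaving a free 5'-OH. Each was made in uncapped and DMTr-dT-capped versions, about 11 replicates each. Arrays were extended with calf thymus TdT (0.2 U/uL), 100 uM dTTP and 0.25 mM CoCl2 for 120 min at 37 C, hybridised with an rA18-Cy3 probe and scanned at 532 nm. The value is the mean uncapped minus the mean capped signal. IDs read 5'->3'. L-DNA is mirror-image; D-DNA 5'-OH initiators were below LOD (no extension).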

Sequence of UniProt P06526 (P06526 whole entry): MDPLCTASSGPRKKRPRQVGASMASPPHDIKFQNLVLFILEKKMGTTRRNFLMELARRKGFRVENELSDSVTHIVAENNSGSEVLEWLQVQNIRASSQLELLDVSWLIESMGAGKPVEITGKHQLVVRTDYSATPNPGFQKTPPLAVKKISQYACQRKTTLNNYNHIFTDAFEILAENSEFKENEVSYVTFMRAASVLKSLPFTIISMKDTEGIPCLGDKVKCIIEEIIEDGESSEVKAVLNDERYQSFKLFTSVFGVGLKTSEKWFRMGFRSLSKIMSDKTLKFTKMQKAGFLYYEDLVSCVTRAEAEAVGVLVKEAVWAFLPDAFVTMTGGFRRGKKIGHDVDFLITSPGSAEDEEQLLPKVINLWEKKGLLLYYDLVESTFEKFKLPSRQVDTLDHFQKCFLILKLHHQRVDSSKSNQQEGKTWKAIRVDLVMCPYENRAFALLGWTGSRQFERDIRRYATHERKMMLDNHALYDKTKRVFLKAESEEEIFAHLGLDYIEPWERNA

Row | Sequence | TdT poly-dT extension signal
1 | TTCCC | 358 ± 31
2 | TAGTC | 105 ± 6.7
3 | CCGTG | 59.9 ± 5.3
4 | GACAA | 98.3 ± 8.7
5 | TGGTC | 81.9 ± 6.5
6 | CAAGT | 63.5 ± 6
7 | CTCTC | 129 ± 8.6
8 | AAGA | 78 ± 11
9 | GATGC | 82.1 ± 9.4
10 | GCTCT | 77.8 ± 6.7
11 | ACCG | 78.2 ± 8
12 | GAGTA | 44.9 ± 6
13 | CACCT | 62.2 ± 6.2
14 | ATACT | 186 ± 17
15 | CACGA | 77.6 ± 7
16 | CCAGA | 91.5 ± 8.7
17 | AGAG | 50.4 ± 5.5
18 | ATGAT | 150 ± 9.9
19 | AGGAT | 50.4 ± 5.5
20 | TTTAA | 392 ± 18
21 | GACGC | 93 ± 9.5
22 | TCCAA | 255 ± 14
23 | GACCT | 77.6 ± 11
24 | AAGCG | 51.2 ± 6.2

Row | Sequence | TdT poly-dT extension signal
25 | TTTGG | 350 ± 26
26 | CACAA | 76.2 ± 11
27 | GCTGG | 76.7 ± 7.2
28 | GCAAG | 103 ± 5.6
29 | TTCAT | 372 ± 18
30 | CAAAG | 109 ± 7.9
31 | AGTGC | 38.4 ± 6.6
32 | GCTAA | 92.6 ± 5.5
33 | CCAGG | 92 ± 9.6
34 | TGGGG | 118 ± 12
35 | AGTCG | 36.7 ± 4.2
36 | TCCTT | 191 ± 18
37 | CGCTT | 45.2 ± 3.8
38 | GAGGA | 63.7 ± 7.3
39 | TATTC | 117 ± 14
40 | CCCAA | 117 ± 11
41 | TCCC | 173 ± 16
42 | CCATA | 99.4 ± 8.2
43 | GGTCG | 50.4 ± 6.5
44 | ACAA | 85.9 ± 11
45 | TAATC | 183 ± 13
46 | GAGGG | 69.1 ± 13
47 | CTATC | 168 ± 13
48 | TGTAA | 143 ± 12

Row | Sequence | TdT poly-dT extension signal
49 | CCCC | 88.9 ± 7.5
50 | ACCA | 87.8 ± 9.2
51 | CTTAC | 153 ± 14
52 | CGAG | 75.5 ± 12
53 | GCTGT | 64.2 ± 6.7
54 | TTCGG | 347 ± 20
55 | GTAG | 159 ± 11
56 | AGAGC | 70 ± 8.9
57 | CAAAT | 91.9 ± 6.4
58 | TTGGC | 283 ± 21
59 | GACCA | 82.8 ± 8.6
60 | TCCAG | 251 ± 13
61 | GAGTG | 61 ± 6.3
62 | ATTGT | 167 ± 9.2
63 | ACCGC | 73.4 ± 6.5
64 | GTTTC | 116 ± 9.9
65 | CTTTA | 106 ± 9.8
66 | TAGGT | 99.5 ± 6.8
67 | GTGAC | 144 ± 9
68 | TGCGC | 154 ± 12
69 | CAGGG | 58.4 ± 12
70 | ATAAG | 229 ± 14
71 | AAAG | 72.7 ± 7.4
72 | TCGG | 130 ± 12

Row | Sequence | TdT poly-dT extension signal
73 | GAGGT | 55.2 ± 5.3
74 | AACAT | 88.7 ± 6.5
75 | GCAT | 67.6 ± 6.6
76 | AATAA | 128 ± 8.6
77 | TTGTT | 234 ± 18
78 | CGGAA | 50.7 ± 5.8
79 | TCGTC | 92.2 ± 10
80 | TCCGC | 195 ± 11
81 | CATAC | 66.3 ± 7.3
82 | CTCGT | 115 ± 9
83 | GACCG | 98.1 ± 7.5
84 | TAAAA | 227 ± 14
85 | ACCTA | 79.2 ± 9.5
86 | ACCAT | 97.4 ± 8.9
87 | GCATC | 65.3 ± 9.6
88 | CTATT | 162 ± 13
89 | TTATA | 384 ± 22
90 | GGCGC | 77.7 ± 6.3
91 | AGCCC | 33.7 ± 4.8
92 | CTAAT | 206 ± 15
93 | GGGAC | 76.3 ± 6.6
94 | AACGG | 77.3 ± 5.7
95 | CATTC | 151 ± 95
96 | TAACC | 156 ± 14

Row | Sequence | TdT poly-dT extension signal
97 | TCGCG | 126 ± 20
98 | CCAGC | 90.8 ± 5.6
99 | GAAAT | 88.9 ± 8.3
100 | TCAGG | 179 ± 15
101 | GCTTC | 58.7 ± 5.8
102 | GTGTA | 102 ± 8.1
103 | AAGTC | 52.3 ± 3.9
104 | CATGA | 89.4 ± 9.4
105 | GTGT | 77.5 ± 8.8
106 | ACCAC | 99.1 ± 8.5
107 | AATCG | 76.2 ± 10
108 | GTGAG | 160 ± 13
109 | GTTCA | 101 ± 10
110 | AAGGC | 52.6 ± 3.7
111 | TCCCA | 189 ± 14
112 | CACTG | 62.3 ± 8.9
113 | TGTGC | 104 ± 11
114 | ATGCC | 109 ± 15
115 | AGTAC | 53 ± 7.1
116 | CCGGT | 59.2 ± 5.8
117 | GCCCT | 73.4 ± 8.2
118 | ATTGC | 134 ± 11
119 | TACAG | 190 ± 14
120 | ATGAG | 154 ± 10

Row | Sequence | TdT poly-dT extension signal
121 | CTCCA | 140 ± 11
122 | TGACG | 168 ± 16
123 | AAGTA | 50.8 ± 4.8
124 | TTCCA | 299 ± 18
125 | GAATA | 83.7 ± 7.6
126 | AAAT | 76.4 ± 6.8
127 | TGTGG | 141 ± 7.8
128 | CCAC | 93 ± 7.6
129 | TCAG | 155 ± 9.6
130 | CATAG | 84 ± 9.1
131 | GTGGG | 172 ± 9.4
132 | CGCCG | 65.8 ± 7.1
133 | CTCCG | 127 ± 11
134 | CGGTA | 43.9 ± 5.9
135 | CTGCG | 113 ± 9.6
136 | ACAGC | 71 ± 5.8
137 | GTTCG | 126 ± 14
138 | GTCAA | 150 ± 9.5
139 | CGTA | 62.5 ± 9.9
140 | CGCAA | 59.8 ± 3.4
141 | TCCTA | 193 ± 17
142 | AACAA | 98.3 ± 10
143 | ATTAG | 195 ± 19
144 | GCTGC | 67.7 ± 5.5

Row | Sequence | TdT poly-dT extension signal
145 | CCACA | 97 ± 7.8
146 | GTAGG | 181 ± 10
147 | CTTGT | 122 ± 9.3
148 | CTTCA | 130 ± 11
149 | TTGTG | 240 ± 22
150 | ATGCT | 116 ± 7.5
151 | GGCAT | 73 ± 8.1
152 | GCTA | 74.3 ± 8
153 | GGATA | 75.3 ± 8.1
154 | GGTGC | 53.2 ± 4.9
155 | CCTTC | 57.1 ± 6.1
156 | CGCTA | 55.8 ± 5
157 | CGGCC | 60.3 ± 5.3
158 | ACACC | 72.6 ± 7.5
159 | TCTCG | 153 ± 8.1
160 | GGAGG | 104 ± 13
161 | ATGGT | 120 ± 11
162 | CAGG | 55 ± 6
163 | ATTGA | 165 ± 14
164 | GATTA | 77.7 ± 7.4
165 | CACCC | 63.7 ± 8
166 | TGGTT | 105 ± 8.6
167 | TCCTG | 166 ± 16
168 | GAAG | 84.2 ± 7

Row | Sequence | TdT poly-dT extension signal
169 | CCAAC | 88.3 ± 9
170 | TCTTT | 153 ± 12
171 | TAAC | 170 ± 9.3
172 | TGGAT | 115 ± 8.1
173 | CTATA | 170 ± 13
174 | GTCAT | 135 ± 9.9
175 | CCGCT | 57.4 ± 6
176 | CCAAT | 101 ± 7.5
177 | AGTG | 45.2 ± 5.9
178 | AAGAT | 64.9 ± 8.1
179 | CAGAC | 60 ± 6.4
180 | TAAAG | 223 ± 12
181 | AAAGC | 67 ± 7.7
182 | GACTC | 92.9 ± 11
183 | ACGT | 42.1 ± 5.4
184 | AGACG | 76.7 ± 8.6
185 | AGCTA | 43.4 ± 4.9
186 | CCCTT | 78.4 ± 6.8
187 | TATCG | 166 ± 17
188 | GCCG | 95.6 ± 5.3
189 | CTCTG | 148 ± 13
190 | ACGAT | 57.4 ± 6.8
191 | TATCC | 138 ± 13
192 | GTGCA | 84.5 ± 7.8

Row | Sequence | TdT poly-dT extension signal
193 | TCTCA | 199 ± 18
194 | TACGG | 192 ± 11
195 | CACAG | 80.2 ± 6.8
196 | AAAAC | 78.1 ± 8.6
197 | TTTT | 223 ± 25
198 | CTTTT | 135 ± 12
199 | GATTT | 79.8 ± 9
200 | CCCTG | 78.1 ± 7.9
201 | CATTA | 78.4 ± 11
202 | CTGTC | 101 ± 8.1
203 | GGTCT | 31.1 ± 5.4
204 | GAGC | 67.3 ± 3.5
205 | ATCT | 148 ± 17
206 | TCCT | 169 ± 16
207 | AGCCA | 49.6 ± 8.4
208 | GTACT | 137 ± 10
209 | TGATG | 184 ± 9.4
210 | CGGC | 59.4 ± 8.6
211 | GTGCG | 129 ± 9.4
212 | GAAA | 96.5 ± 8.5
213 | GTGA | 101 ± 10
214 | TCAAC | 186 ± 13
215 | ACACG | 65.7 ± 8.4
